Biological target: human ROR1 (hROR1) (human, UniProt Q01973)
Assay: cell-based or functional assay

B1: Conjugate 3 (2188-D04-Y180-LP9) (antibody, human IgG1, kappa)
heavy: MEVQLVESGGGLVQPGGSLRLSCAASGFNISDYDIHWVRQAPGKGLEWVGGIDPADGSTDYADSVKGRFTISADTSKNTAYLQMNSLRAEDTAVYYCARDYGVYDYWGQGTLVTVSS[human IgG1 constant region cut from this listing]
light: [about 200 residues cut from this listing]
modifications: pAMF in place of HC-Y180 (EU numbering), conjugated to LP9 (DBCO-PEG4-VA-PBD)
cell killing on ROR1 positive NTERA-2 cells, EC50: 0.3 pM | cell killing on ROR1 positive NTERA-2 cells, Span: 95%

Source: patent US20240058465A1 (SUTRO BIOPHARMA, published 2024)
